Data taken from PubChem BioAssay AID1508623 (National Center for Advancing Translational Sciences (NCATS), 2021).
The whole screen tested about 48,000 compounds, of which about 450 (0.94%) were called active. Inconclusive results, whose numbers are uncertain, are shown with a selection of clear calls. Calls come from the whole dose curve; as a rule, active = well fitted inhibition curve with a large enough effect; inconclusive = small, poorly fitted or top-dose-only effect; inactive = no such curve, though single readings can be large or run the other way. Potencies beside an inconclusive call are fits to weak or partial responses and may not hold up.

assay: Primary qHTS for Identification of Small Molecule Inhibitors of Huntingtin Promoter Activity; conditions: HEK293 HTT promoter firefly luciferase reporter (activity 0% = vehicle and -100% = no light), 24 h; activity change, negative = inhibition: at 57.5 µM (top of the series); note: nearly all actives have a fitted effect of over 50% in size
In short: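 HEK293 Fluc reporter, 2,500 cells/well, 24 h pre-culture; cpds up to 57.5 uM final, 24 h 37 degrees C; Dual-Glo, 10 min RT; normalized vehicle = 0%, zero RLU = -100%.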
Potency is the fitted concentration of half-maximal effect; tags give direction and shape of the fitted curve.

**Q.** For `CCc1ccccc1NC(=O)c1ccc(F)c(S(=O)(=O)N2CCN(c3cccc(Cl)c3)CC2)c1`, which Potency is on record?
**A.** inconclusive: 2 µM [inhibitor, full curve]

**Q.** Which “activity change, negative = inhibition” value does the source give for `CCOc1ccc(NC(=O)CSc2oc(-c3ccc(C)cc3)nc2S(=O)(=O)c2ccc(C)cc2)cc1` here?
**A.** inactive: -17%

**Q.** With `Cc1ccc(O)c(-c2n[nH]c3c2C(c2ccc(F)cc2)N(Cc2ccco2)C3=O)c1` (stereo not given) as the compound, how does the Potency read?
**A.** inconclusive: 35.5 µM [inhibitor, partial curve, poor fit]

**Q.** With `C[C@]12CC[C@H](O)CC1=CC[C@@H]1[C@H]2CC[C@]2(C)C(c3cccnc3)=CC[C@H]12` as the compound, how does the “activity change, negative = inhibition” value read?
**A.** inactive: 1.19% [at 25.2 µM]

**Q.** For `COc1cc(NC(=O)C2CCN(c3nc4ccccc4nc3C(F)(F)F)CC2)cc(OC)c1`, which Potency is on record?
**A.** inconclusive: 31.6 µM [inhibitor, single point]

**Q.** With `CCCCNC(=O)CN1CCN(c2ncc(NC(=O)c3ccc(Cl)cc3)cc2C(=O)O)CC1` as the compound, how does the “activity change, negative = inhibition” value read?
**A.** inactive: -17%

**Q.** With `CCc1ccccc1N(CC)C(=O)C1CCN(c2ncnc3c2nc2n3CCCCC2)CC1` as the compound, how does the Potency read?
**A.** inconclusive: 25.1 µM [inhibitor, single point]

**Q.** For `CCOC(=O)C(=O)c1csc(NC=O)n1`, which “activity change, negative = inhibition” value is on record?
**A.** inactive: 13.6%

**Q.** Which “activity change, negative = inhibition” value does the source give for `Cc1cccc(N2CCN(C(=O)c3cc4ccc5cccnc5c4[nH]3)CC2C)c1` (stereo not given) here?
**A.** inactive: -27.5%

**Q.** For `COCCCNc1nc(NCc2ccc(C)cc2)c2cnn(C)c2n1`, which Potency is on record?
**A.** inconclusive: 20 µM [inhibitor, partial curve]

**Q.** With `COc1cc(OC)cc(C(=O)NCCc2csc(-c3ccc(C(F)(F)F)cc3)n2)c1` as the compound, how does the Potency read?
**A.** inconclusive: 39.8 µM [inhibitor, partial curve, poor fit]

**Q.** Which Potency does the source give for `COc1ccc(NC(=O)C(C(C)C)N2Cc3ccccc3C2=O)cc1` (stereo not given) here?
**A.** inconclusive: 31.6 µM [inhibitor, partial curve, poor fit]

**Q.** With `Cc1ccc(-n2nc3c(=O)n(C(C)C(=O)NCc4ccccc4C)nc(C)c3c2C)cc1` (stereo not given) as the compound, how does the Potency read?
**A.** inconclusive: 25.1 µM [inhibitor, partial curve, poor fit]

**Q.** Which Potency does the source give for `CCOc1ccccc1NS(=O)(=O)c1cc(-c2cnc(C3CC3)o2)ccc1C` here?
**A.** inconclusive: 22.4 µM [inhibitor, single point]

**Q.** For `O=C(c1cc2ccc3cccnc3c2[nH]1)N1CCN(c2cccc(Cl)c2)CC1`, which Potency is on record?
**A.** inconclusive: 35.5 µM [inhibitor, single point]

**Q.** Which “activity change, negative = inhibition” value does the source give for `Cc1cc2n(n1)CCC(=O)N2Cc1ccc(C(=O)Nc2cccc(C(F)(F)F)c2)cc1` here?
**A.** inactive: -14.9%

**Q.** Which “activity change, negative = inhibition” value does the source give for `CC(C)c1ccc(Nc2c(-c3ccc(N(C)C)cc3)nc3cnccn23)cc1` here?
**A.** inactive: 8.58%

**Q.** Which Potency does the source give for `COc1ccc(-c2noc(CSc3nc4ccccc4[nH]3)n2)cc1` here?
**A.** inconclusive: 15.8 µM [inhibitor, partial curve, poor fit]

**Q.** Which Potency does the source give for `O=C(NCCc1ccc(Cl)cc1)C(=O)NCC(c1cccs1)S(=O)(=O)c1ccccc1` (stereo not given) here?
**A.** inconclusive: 10 µM [inhibitor, partial curve, poor fit]

**Q.** Which “activity change, negative = inhibition” value does the source give for `COc1cccc(CN(C(=O)c2oc3ccccc3c2C)C2CCS(=O)(=O)C2)c1` (stereo not given) here?
**A.** inactive: -1.75%

**Q.** Which Potency does the source give for `CNC(=O)c1c(NC(=O)Cc2coc3ccc(OC)cc23)sc2c1CCCC2` here?
**A.** inconclusive: 3.55 µM [inhibitor, partial curve, poor fit]

**Q.** Which Potency does the source give for `O=C(Cc1ccc(Cl)cc1)Nc1ccc2oc(-c3ccccc3F)nc2c1` here?
**A.** inconclusive: 39.8 µM [inhibitor, single point]

**Q.** Which Potency does the source give for `CCC1CN(C(=O)N2CCC(C(=O)N3CCN(c4cc(C)ccc4C)CC3)CC2)c2ccccc2O1` (stereo not given) here?
**A.** inconclusive: 7.08 µM [inhibitor, full curve, poor fit]

**Q.** With `CC(=O)Nc1ccc(Nc2ncnc3sc4c(c23)CCCC4)cc1` as the compound, how does the “activity change, negative = inhibition” value read?
**A.** inactive: 11.1%

**Q.** For `Cc1cccc(C(=O)N2CCc3cc(CNS(=O)(=O)c4cccs4)ccc32)c1`, which Potency is on record?
**A.** inconclusive: 25.1 µM [inhibitor, single point]

**Q.** Which “activity change, negative = inhibition” value does the source give for `O=C(c1ccco1)N1CCN(C(=O)c2cnn(-c3cccc(F)c3)c2C2CCNCC2)CC1` here?
**A.** inactive: 5.17%

**Q.** With `CN(C)CCN1C(=O)c2cccc3cc(N)cc(c23)C1=O` as the compound, how does the Potency read?
**A.** inconclusive: 13.7 µM [inhibitor, partial curve]

**Q.** Which Potency does the source give for `CCOC(=O)C1CCN(C(=O)c2ccc3c(c2)N=C(CC)c2cc(C)ccc2S3)CC1` here?
**A.** inconclusive: 28.2 µM [inhibitor, partial curve, poor fit]

**Q.** With `O=C(CSc1nc2c(cnn2-c2ccc(F)cc2)c(=O)[nH]1)Nc1ccccc1C(F)(F)F` as the compound, how does the Potency read?
**A.** inconclusive: 14.1 µM [inhibitor, partial curve]

**Q.** For `CCC(=O)N1CCc2cc(S(=O)(=O)CCC(=O)NCc3ccc(OC)cc3)ccc21`, which “activity change, negative = inhibition” value is on record?
**A.** inactive: -0.955%

**Q.** Which “activity change, negative = inhibition” value does the source give for `COc1cccc(CNC(=O)c2cc3ccc4cccnc4c3[nH]2)c1` here?
**A.** inactive: 11.5%

**Q.** With `Cc1nn(-c2ccccc2)c2sc(C(=O)Nc3cccc(Br)c3)cc12` as the compound, how does the Potency read?
**A.** inconclusive: 35.5 µM [inhibitor, partial curve]

**Q.** With `CCOC(=O)N1CCN(C(=O)Cn2ncc3c4ccccc4n(Cc4ccc(F)cc4)c3c2=O)CC1` as the compound, how does the Potency read?
**A.** inconclusive: 17.8 µM [inhibitor, partial curve, poor fit]

**Q.** Which Potency does the source give for `Cc1noc(C)c1S(=O)(=O)NCCc1csc2nc(-c3ccc(Cl)cc3)nn12` here?
**A.** inconclusive: 35.5 µM [inhibitor, single point]

**Q.** Which Potency does the source give for `COc1ccccc1-c1nnc(C2CCN(S(=O)(=O)c3ccc(F)c(C)c3)CC2)o1` here?
**A.** inconclusive: 22.4 µM [inhibitor, single point]

**Q.** For `O=C(COc1ccc(F)cc1)Nc1ccc(Cl)c(-c2nc3ccccc3[nH]2)c1`, which “activity change, negative = inhibition” value is on record?
**A.** inactive: -27.5%

**Q.** Which Potency does the source give for `O=c1cc(CN2CCOCC2)occ1OCCCCCSc1ccnc2cc(C(F)(F)F)ccc12` here?
**A.** inconclusive: 4.85 µM [inhibitor, partial curve]

**Q.** With `Cc1nc(-c2ccc(F)cc2)sc1CCNC(=O)c1ccc(C(C)(C)C)cc1` as the compound, how does the Potency read?
**A.** inconclusive: 35.5 µM [inhibitor, partial curve, poor fit]

**Q.** With `Cc1ccc(Cl)cc1NS(=O)(=O)c1ccc(N2CCCCS2(=O)=O)cc1` as the compound, how does the Potency read?
**A.** inconclusive: 22.4 µM [inhibitor, partial curve, poor fit]

**Q.** For `Cc1ccc(C(=O)NCC(c2cccnc2)N2CCc3ccccc3C2)cc1C` (stereo not given), which Potency is on record?
**A.** inconclusive: 39.8 µM [inhibitor, single point]
